Measured values from PubChem BioAssay AID445 (National Center for Advancing Translational Sciences (NCATS), 2006).
The campaign covered roughly 110,000 compounds. About 40 (0.04%) were called active. Inconclusive results, whose numbers are uncertain, are shown with a selection of clear calls. The call rests on the fitted dose curve; in most records, active means well fitted curve in the direction sought with a large enough effect in the signal ratio (not every such curve was filed as active); inconclusive means small, poorly fitted or top-dose-only effect, or a change in a side signal; inactive means flat fitted curve, though single readings scatter; the % refers to the signal ratio. Potencies of inconclusive entries are doubtful fits and often do not repeat.

experiment: IkB Signaling; settings: ABC-DLBCL IkBa-CBG/CBR dual luciferase ratio (green luciferase fused to IkBa over red control in OCI-Ly3 lymphoma cells), 4 h; IkBa stabilization activation: at 57.1 µM (top of the series), scaled: untreated 0%, proteasome inhibitor 100% unless noted;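 on IkBa stabilization activation: 0% = basal untreated cells and 100% = reference inhibitor full response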
Method in brief: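 In this assay, an IκBα–CBG68 fusion accumulates when IKK-driven degradation is blocked; native CBR normalizes for cell number. OCI-Ly3 cells were treated 4 h with compound and doxycycline, then green and red light read after Chroma-Glo addition.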
Potency means the concentration at half of the fitted maximal effect.

SMILES | IkBa stabilization activation | Potency
CCOC(=O)c1c(NC(=O)c2nn(CC)cc2Br)c(C#N)nn1-c1ccccc1 | inconclusive: 1.16% [signal inhibitor] | –
CC(C)CCn1c(SCC(=O)c2ccccc2)nc2c1c(=O)[nH]c(=O)n2C | inactive: -0.189% | –
Cc1ccccc1-c1nc(CS(=O)(=O)CC(=O)N2CCN(c3ccccc3)CC2)c(C)o1 | inconclusive: 4.13% [signal inhibitor] | –
Cc1cc(C)n(CCOC(=O)c2sc3ccccc3c2Cl)n1 | inactive: 1.72% | –
CCc1ccc2oc(-c3cccc(NC(=O)c4ccc(N5CCC(C)CC5)c([N+](=O)[O-])c4)c3)nc2c1 | inconclusive: -2.43% [signal inhibitor] | –
CCOc1ccccc1CNC(=O)c1cc2cc(S(=O)(=O)N3CCCCC3)ccc2n1C | inactive: -0.29% | –
CCOc1ccc(-c2nc(CSCC(=O)N3CCN(c4cccc(OC)c4)CC3)c(C)o2)cc1 | inconclusive: -2.83% [signal inhibitor] | –
CCNC(=O)C1CC(=O)N(Cc2ccc3c(c2)OCO3)C(=Nc2ccc(OCC)cc2)S1 (stereo not drawn) | inactive: 1.34% | –
COCCCn1c(=S)[nH]c2ncccc2c1=O | inactive: -1.28% | –
Cc1cccc(CSc2cn(CC(=O)N3CCCC3)c3ccccc23)c1 | inconclusive: 2.49% [signal inhibitor] | –
CN(C)c1cc(O)c(C(=S)Nc2ccccc2)c(N(C)C)c1 | inconclusive: 1.7% [signal inhibitor] | –
Cc1cc(N2CCCCC2)nc2ccc(NC(=O)/C=C/c3ccccc3OC(C)C)cc12 | inconclusive: -1.52% [signal inhibitor] | –
COc1cc(OC)c(-c2nnc(-c3ccc(OC)c(OC)c3OC)o2)cc1OC | inactive: -0.201% | –
Cc1ccc(NC(=O)c2oc3ccccc3c2NC(=O)c2cc3ccccc3o2)cc1 | inconclusive: 4.11% [signal inhibitor] | –
COC(=O)c1ccc(NC(=O)c2cc(S(=O)(=O)N3CCc4ccccc43)cn2C)cc1 | inconclusive: -2.35% [signal inhibitor] | –
N#Cc1ccccc1-c1ccc2ncnc(NC3CC3)c2c1 | inactive: 0.359% [at 11.4 µM, scaled: untreated 0%, proteasome inhibitor 100%] | –
CCOc1ccccc1NC(=O)Cn1cnc2onc(-c3ccc(F)cc3)c2c1=O | inconclusive: 4.5% [signal inhibitor] | –
O=C(OCc1cc(=O)n2nc(C3CC3)sc2n1)c1ccc(F)cc1 | inconclusive: -1.93% [signal inhibitor] | –
COc1ccc(-n2c(=O)c3ccc(C(=O)NCc4ccc(C)cc4)cc3n(CC(=O)Nc3ccc(F)cc3)c2=O)cc1 | inconclusive: -0.996% [signal inhibitor] | –
O=C(NCc1cccnc1)C1CCN(Cc2cc3ccccc3n2Cc2cccc(Cl)c2)CC1 | inconclusive: -0.529% [signal inhibitor] | –
CCOc1cc(C)nc(NCCc2ccc(OC)c(OC)c2)n1 | inactive: 0.556% | –
S=C1SCN(C2CCCCCCCCCCC2)CN1C1CCCCCCCCCCC1 | inactive: 0.838% [at 11.4 µM, scaled: untreated 0%, proteasome inhibitor 100%] | –
NCCC[C@@H](CC(=O)N[C@@H]1CCCC[C@H]1C(=O)N[C@H](CC(=O)N[C@@H](CCC(=O)O)CC(=O)O)Cc1ccccc1)NC(=O)C[C@H](Cc1ccccc1)NC(=O)[C@@H]1CCCC[C@H]1N | inactive: 0.301% | –

SMILES | IkBa stabilization activation | Potency
CCOC(=O)c1cc(C)n(CC2CCC(C(=O)Nc3ccc(Cl)cc3)CC2)c1C (stereo not drawn) | inconclusive: 1.54% [signal inhibitor] | –
CCC1CCc2nc3sc(C(=O)Nc4ccc(F)cc4F)c(N)c3cc2C1 (stereo not drawn) | inconclusive: -0.134% [signal inhibitor] | –
O=C(Nc1ccc(CN2CCOCC2)cc1)c1cc2ccccc2o1 | inconclusive: 2.35% [signal inhibitor] | –
CC(=O)Nc1cccc(C(=O)NCc2ccc3c(c2)CCN3C(=O)c2ccccc2)c1 | inconclusive: -0.532% [signal inhibitor] | –
COc1cc(OC)c(NC(=O)NC(C)c2c(-n3cccc3)sc(C)c2C)cc1Cl (stereo not drawn) | inconclusive: 0.583% [signal inhibitor] | –
Cc1ccc2cccc(NC(=O)c3ccc(-c4cccc([N+](=O)[O-])c4)o3)c2n1 | inconclusive: 4.55% [signal inhibitor] | –
CCCCNC(=O)CSc1nc2nc(C)c(Cc3ccccc3C)c(C)n2n1 | inconclusive: -2.03% [signal inhibitor] | –
COc1cccc(C(=O)Nc2cc(-c3ccccc3)no2)c1 | – | inconclusive: 15.8 µM [signal inhibitor, partial curve]
CC(C)CC(=O)Nc1ccc(C(=O)OCc2cc(=O)n3nc(C(C)C)sc3n2)cc1 | inactive: 0.704% | –
Cc1c(-c2nc(N)nc(Nc3ccccc3)n2)oc2ccccc12 | – | inconclusive: 0.0794 µM [signal inhibitor, partial curve]
c1ccc2[nH]c(CSc3ncnc4c3oc3ccccc34)nc2c1 | inconclusive: -1% [signal inhibitor] | –
Cc1cc(N2CCC(C)CC2)n2nc(C)c(-c3ccccc3)c2n1 | inactive: 0.565% | –
CC(C)C(=O)Nc1ccccc1N1CCN(C(=O)c2ccccc2)CC1 | inactive: 2.85% | –
COc1ccc(/C=C/c2nc(C#N)c(NCCc3ccc(OC)c(OC)c3)o2)cc1OC | inconclusive: 0.379% [signal inhibitor] | –
CCOC(=O)c1sc(NC(=O)/C=C/c2ccc(OCC)cc2)c(C(=O)OCC)c1C | inactive: 1.49% | –
O=C(NCc1ccccc1)c1ccc2c(c1)CCN2S(=O)(=O)c1ccccc1 | inconclusive: 1.24% [signal inhibitor] | –
CCOC(=O)c1[nH]c(C)c(CCC(=O)NCc2ccccc2Cl)c1C | inactive: -1.74% | –
CCCCC(CC)CNC(=O)C1CCC(CNS(=O)(=O)c2cccc3nsnc23)CC1 (stereo not drawn) | inconclusive: 0.938% [signal inhibitor] | –
Cc1cc(C)cc(OCCCn2c(CCNC(=O)C3CCCCC3)nc3ccccc32)c1 | inconclusive: -0.196% [signal inhibitor] | –
COc1ccc(CCNC(=O)CCCn2c(=O)c3ccccc3n(Cc3c(C)cc(C)cc3C)c2=O)cc1OC | inactive: -0.244% | –
CC1CCN(S(=O)(=O)c2ccc(C(=O)Nc3sc4c(c3C(N)=O)CC(C)(C)NC4(C)C)cc2)CC1 | inconclusive: -3.2% [signal inhibitor] | –
Cc1cccc(C)c1-n1ncc(C(=O)N2CCN(c3ccccn3)CC2)c1C1CCN(C(=O)OC(C)(C)C)CC1 | inconclusive: 6.8% [signal inhibitor] | –
COC(=O)CN1C(=O)COc2ccc(Cl)cc21 | – | inconclusive: 10 µM [signal inhibitor, partial curve]

SMILES | IkBa stabilization activation | Potency
COc1ccccc1NC(=O)N1CCc2[nH]c3ccc(Cl)cc3c2C1 | inconclusive: 8.03% [signal inhibitor] | –
O=C(Nc1ccc2c(c1)OCCO2)c1ccc(S(=O)(=O)N2CCCCC2)cc1 | inconclusive: 2.51% [signal inhibitor] | –
COc1ccc2c(c1)CCc1c(C(=O)Nc3c(C)nn(Cc4ccc(Cl)c(Cl)c4)c3C)noc1-2 | inactive: 7.56% | –
COC(=O)c1sc2cccc(F)c2c1S(=O)(=O)N1CCN(c2ccc(F)cc2)CC1 | inactive: -1.76% | –
COc1cc(OC)c(NC(=O)NCc2ccc3c(c2)CCN3C(=O)c2ccccc2)cc1Cl | inconclusive: -1.04% [signal inhibitor] | –
Nc1nnc(SCC(=O)Nc2ccc(F)c(Cl)c2)n1-c1ccccc1 | inconclusive: -0.811% [signal inhibitor] | –
CCOC(=O)c1[nH]c2ccc(C)cc2c1NC(=O)CN1CCCCC1 | inactive: 0.541% | –
CCc1ccccc1NC(=O)CSc1nc(-c2ccccc2OC)nc2c1Cc1c(CO)cnc(C)c1O2 | inconclusive: -0.941% [signal inhibitor] | –
COCCn1c(=O)c(-c2cn(C)c3ccccc23)nc2cnc(OCc3ccccc3)nc21 | inactive: 0.975% [at 11.4 µM, scaled: untreated 0%, proteasome inhibitor 100%] | –
CC(=O)c1cc(C(=O)Nc2cc(C)cc(C)c2)c2ccccn12 | – | inconclusive: 7.94 µM [signal inhibitor]
Cc1ccc2c(c1)cc1c(=O)n(CC(=O)NC3CCCCC3)nc(C)n12 | inconclusive: 9.71% [signal inhibitor] | –
O=C(CCSc1nc(-c2ccco2)cc(C(F)(F)F)n1)N1CCN(c2ccccn2)CC1 | inconclusive: -1.48% [signal inhibitor] | –
Cc1cccn2c(=O)c3cc(C(=O)NCc4ccccc4)c(=N)n(CCOCCO)c3nc12 | inconclusive: 2.1% [signal inhibitor] | –
O=C(CSc1nc(Nc2ccccc2)nc(N2CCOCC2)n1)N1CCCC1 | inactive: -0.673% | –
COc1ccc(Nc2nc(OC)nc(N3CCN(c4ccc(OC)cc4)CC3)n2)cc1 | inactive: -0.886% | –
CCOc1ccc(NC(=O)c2nnn(CC(=O)Nc3ccccc3OC)c2N)cc1 | inactive: -0.415% | –
O=C(Cn1cc(SCc2ccc(C(F)(F)F)cc2)c2ccccc21)N1CCCC1 | inconclusive: -1.1% [signal inhibitor] | –
CCOC(=O)N1CCC(NC(=O)c2cnn(-c3cccc(Cl)c3C)c2C2CCN(C(=O)OC(C)(C)C)CC2)CC1 | inconclusive: 2.93% [signal inhibitor] | –
O=C1c2ccccc2C(=O)N1CCCc1nc(-c2ccc(Cl)cc2)no1 | inactive: -1.28% | –
COc1cccc(CN2CCc3nc(N4CCN(c5ncccn5)CC4)ncc3C2)c1 | inconclusive: 5.18% [signal inhibitor] | –
Cc1ccccc1C(=O)Nc1ccc2c(c1)OCO2 | inactive: 5.1% | –
CSC1=C(C#N)C(c2ccc(Cl)cc2)C2=C(CC(C)(C)CC2=O)N1 (stereo not drawn) | inconclusive: -5.97% [signal inhibitor] | –
